In publication PMC10196724 one finds binding data, which are given here for 3 molecules.

Amino acid sequences for entries named in this document (tags omitted).
UniProt P49840: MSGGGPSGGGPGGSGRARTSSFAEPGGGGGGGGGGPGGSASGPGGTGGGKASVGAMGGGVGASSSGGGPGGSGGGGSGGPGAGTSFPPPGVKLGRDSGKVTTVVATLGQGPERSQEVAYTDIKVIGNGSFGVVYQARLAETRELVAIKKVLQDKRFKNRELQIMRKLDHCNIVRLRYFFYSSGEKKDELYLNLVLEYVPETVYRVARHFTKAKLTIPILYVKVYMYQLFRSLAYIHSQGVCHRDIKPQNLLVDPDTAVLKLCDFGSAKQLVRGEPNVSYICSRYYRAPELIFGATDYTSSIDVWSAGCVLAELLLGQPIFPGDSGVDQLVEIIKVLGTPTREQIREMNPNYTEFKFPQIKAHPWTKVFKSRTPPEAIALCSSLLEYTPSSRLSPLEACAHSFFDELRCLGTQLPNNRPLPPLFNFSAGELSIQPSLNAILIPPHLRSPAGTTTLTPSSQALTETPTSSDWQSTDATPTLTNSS
UniProt P49841: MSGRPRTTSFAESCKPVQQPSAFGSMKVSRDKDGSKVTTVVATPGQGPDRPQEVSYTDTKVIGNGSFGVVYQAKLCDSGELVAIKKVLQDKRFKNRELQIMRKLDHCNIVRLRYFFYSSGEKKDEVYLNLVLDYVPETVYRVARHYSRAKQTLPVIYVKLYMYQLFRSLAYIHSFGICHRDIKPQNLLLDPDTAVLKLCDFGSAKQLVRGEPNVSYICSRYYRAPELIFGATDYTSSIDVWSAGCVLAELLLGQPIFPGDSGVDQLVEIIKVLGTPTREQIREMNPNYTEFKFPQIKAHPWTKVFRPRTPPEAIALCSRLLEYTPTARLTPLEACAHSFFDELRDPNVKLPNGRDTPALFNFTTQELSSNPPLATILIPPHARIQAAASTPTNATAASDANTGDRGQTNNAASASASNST

These are yes or no findings as the source states them, for the method shown. In cells and extracts the contact can be indirect. Some binding calls cover weakened binding; strength is not graded here. For some assays here: Sequences can lack the tags named with a protein.

The target of experiment [1] is T1, THRAP3 (human (endogenous in 293T)) (UniProt Q9Y2W1).
T1 sequence: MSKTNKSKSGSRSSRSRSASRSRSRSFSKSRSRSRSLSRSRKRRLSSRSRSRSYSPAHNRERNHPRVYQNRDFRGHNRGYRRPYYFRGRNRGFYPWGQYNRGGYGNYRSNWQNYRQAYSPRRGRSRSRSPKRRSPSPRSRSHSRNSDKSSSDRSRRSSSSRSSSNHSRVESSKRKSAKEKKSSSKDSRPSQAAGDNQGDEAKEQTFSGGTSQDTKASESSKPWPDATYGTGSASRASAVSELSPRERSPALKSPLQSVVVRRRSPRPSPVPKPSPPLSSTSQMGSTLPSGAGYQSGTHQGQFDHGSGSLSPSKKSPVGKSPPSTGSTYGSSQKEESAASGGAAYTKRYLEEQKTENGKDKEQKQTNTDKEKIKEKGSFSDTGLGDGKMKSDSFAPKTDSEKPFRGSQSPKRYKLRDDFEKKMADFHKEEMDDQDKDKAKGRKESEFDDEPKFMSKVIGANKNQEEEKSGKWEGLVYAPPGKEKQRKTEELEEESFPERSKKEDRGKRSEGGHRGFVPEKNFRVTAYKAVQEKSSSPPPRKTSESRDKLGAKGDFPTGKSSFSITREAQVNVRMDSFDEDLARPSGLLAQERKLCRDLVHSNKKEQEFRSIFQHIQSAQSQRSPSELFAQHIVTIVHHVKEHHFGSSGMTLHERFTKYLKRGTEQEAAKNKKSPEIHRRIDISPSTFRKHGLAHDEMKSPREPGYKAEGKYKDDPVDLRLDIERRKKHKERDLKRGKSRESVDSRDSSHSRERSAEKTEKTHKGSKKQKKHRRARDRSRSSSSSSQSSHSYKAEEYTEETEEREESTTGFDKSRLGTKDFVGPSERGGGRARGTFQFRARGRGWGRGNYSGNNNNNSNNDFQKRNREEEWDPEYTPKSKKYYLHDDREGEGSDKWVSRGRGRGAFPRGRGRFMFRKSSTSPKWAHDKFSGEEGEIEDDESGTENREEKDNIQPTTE
Briefly: co-IP; endogenous THRAP3 enriched with an anti-THRAP3 antibody, IgG as control; immunoblots with anti-GSK3α and anti-GSK3β antibodies (Fig. 6N).

A further experiment has as its target T2, Flag-THRAP3 (human) (UniProt Q9Y2W1).
T2 sequence: T1 sequence
Briefly: co-IP; Flag-THRAP3 pulled down with anti-Flag magnetic beads from lysate of transfected cells; immunoblots with anti-GSK3α and anti-GSK3β antibodies (Fig. 6L, M). In general terms: A western blot detects proteins with antibodies after separation by electrophoresis.

A further experiment concerns the target GSK3α-myc (human) (UniProt P49840). The experiment is described as follows: co-IP; binding proteins of GSK3α-myc immunoblotted with anti-THRAP3 antibody (Fig. 6K).

For “GSK3β (from UniProt P49841 1-420) (enzyme)”, the binding entry (in experiment [1]; in the experiment with Flag-THRAP3 (human)) was “no binding” in each case.
“GSK3α (from UniProt P49840 1-483) (enzyme)”: the binding result (in experiment [1]; in the experiment with Flag-THRAP3 (human)) was “binds” each time.

B1: THRAP3 (protein, UniProt Q9Y2W1 1-955)
chain: T1 sequence
As for B1, the binding result with GSK3α-myc (human) is on record as “binds”.
